Reference: the BET-seq Pho4 binding data (Le et al. 2018)
This is one part of the list. These are noisy estimates, calculated here from bound and input reads.

The sequences below were run against T1, Pho4 (S. cerevisiae) (UniProt P07270) (assay: relative binding free energy (BET-seq); higher = weaker binding). Conditions: reference: library average.
T1 sequence: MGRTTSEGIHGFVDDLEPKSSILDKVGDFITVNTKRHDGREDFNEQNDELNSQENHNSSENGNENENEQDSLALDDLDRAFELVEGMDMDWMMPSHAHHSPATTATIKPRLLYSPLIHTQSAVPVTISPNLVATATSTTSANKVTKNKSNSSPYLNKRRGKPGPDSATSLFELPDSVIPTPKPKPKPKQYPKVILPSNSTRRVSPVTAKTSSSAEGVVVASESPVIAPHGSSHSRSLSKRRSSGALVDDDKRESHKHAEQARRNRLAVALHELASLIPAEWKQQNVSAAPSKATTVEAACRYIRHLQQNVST
For TTATGCACGTGTTGTA, the “relative binding free energy” value was 0.0418 kJ/mol. ATGTACACGTGTAGTA was tested, and the “relative binding free energy” value was 0.669 kJ/mol. With TTTGACACGTGTGAAT the “relative binding free energy” value was 0.418 kJ/mol. With GGTTACACGTGCAGTT the “relative binding free energy” value was 0.92 kJ/mol. For TGGGACACGTGCAAGG, the “relative binding free energy” value was 0.502 kJ/mol. With CGTGTCACGTGACTGT the “relative binding free energy” value was 0.335 kJ/mol. GATAGCACGTGGGCAT was tested, and the “relative binding free energy” value was -0.251 kJ/mol. With TAGTTCACGTGTCATT the “relative binding free energy” value was 0.837 kJ/mol. For TGGGTCACGTGCCGAG, the “relative binding free energy” value was 0.167 kJ/mol. In the case of TATGTCACGTGTTACT, the “relative binding free energy” value is reported as 0.293 kJ/mol. For GAGCGCACGTGTCGGT, the “relative binding free energy” value was 0.167 kJ/mol. With TAGGGCACGTGTTTGT the “relative binding free energy” value was -0.418 kJ/mol. In the case of AGGGGCACGTGGGGCT, the “relative binding free energy” value is reported as -0.92 kJ/mol. With ATTTACACGTGGGACG the “relative binding free energy” value was 0.669 kJ/mol. AGGACCACGTGGGGAT was tested, and the “relative binding free energy” value was -0.377 kJ/mol. In the case of ATGATCACGTGTTTAA, the “relative binding free energy” value is reported as 0.502 kJ/mol. In the case of GTTTTCACGTGGCTAG, the “relative binding free energy” value is reported as 1.38 kJ/mol. TTTCTCACGTGTCAGG was tested, and the “relative binding free energy” value was 0.795 kJ/mol. For TTAAGCACGTGATGGA, the “relative binding free energy” value was 0.586 kJ/mol. For AAATTCACGTGTGAGT, the “relative binding free energy” value was 0.669 kJ/mol. CATGTCACGTGGGAGT was tested, and the “relative binding free energy” value was 0.0418 kJ/mol. In the case of GGAGACACGTGTAGTG, the “relative binding free energy” value is reported as 1 kJ/mol. For GCAGGCACGTGGGAGG, the “relative binding free energy” value was -0.586 kJ/mol. In the case of TTATTCACGTGTCTAT, the “relative binding free energy” value is reported as 0.209 kJ/mol. GTTACCACGTGGTATT was tested, and the “relative binding free energy” value was -0.377 kJ/mol. In the case of CTTGGCACGTGCGGTG, the “relative binding free energy” value is reported as -0.795 kJ/mol. With AGATTCACGTGGTTTC the “relative binding free energy” value was 1.3 kJ/mol. CGGGGCACGTGTTAGT was tested, and the “relative binding free energy” value was -0.126 kJ/mol. For GGGGTCACGTGCACAG, the “relative binding free energy” value was 0.335 kJ/mol. In the case of ATGATCACGTGGTATT, the “relative binding free energy” value is reported as 0.586 kJ/mol. AGTTGCACGTGGTTAG was tested, and the “relative binding free energy” value was -0.46 kJ/mol. For AAGGCCACGTGAGGTG, the “relative binding free energy” value was 0.669 kJ/mol. TTAAGCACGTGTTTCT was tested, and the “relative binding free energy” value was -0.795 kJ/mol. With GATGGCACGTGATATG the “relative binding free energy” value was 0 kJ/mol. In the case of AAGGTCACGTGAGCTG, the “relative binding free energy” value is reported as 1.42 kJ/mol. For GAGTGCACGTGTGAGT, the “relative binding free energy” value was 0.628 kJ/mol. ATTAGCACGTGAGGCT was tested, and the “relative binding free energy” value was 0.418 kJ/mol. In the case of AAGCTCACGTGGTGTG, the “relative binding free energy” value is reported as 0.879 kJ/mol. AAGTTCACGTGGGTGC was tested, and the “relative binding free energy” value was 0.92 kJ/mol. With GTCGGCACGTGGAGAG the “relative binding free energy” value was 0.293 kJ/mol. With GGATTCACGTGATAGA the “relative binding free energy” value was 1.84 kJ/mol. For TTGGTCACGTGCAATT, the “relative binding free energy” value was 0.795 kJ/mol. With ATGGTCACGTGTGTAA the “relative binding free energy” value was 0.544 kJ/mol. For GTAAGCACGTGTTATT, the “relative binding free energy” value was 0 kJ/mol. In the case of GTGGCCACGTGGGAAG, the “relative binding free energy” value is reported as -0.46 kJ/mol. In the case of ATGTTCACGTGGCCTT, the “relative binding free energy” value is reported as 0.502 kJ/mol. In the case of GGAGTCACGTGAGATT, the “relative binding free energy” value is reported as 1.59 kJ/mol. With CGAAGCACGTGGGGGG the “relative binding free energy” value was -0.753 kJ/mol. In the case of TTCTGCACGTGGTGTA, the “relative binding free energy” value is reported as -0.209 kJ/mol. In the case of GGGGGCACGTGTGATT, the “relative binding free energy” value is reported as 0.209 kJ/mol. AATGTCACGTGAGGGT was tested, and the “relative binding free energy” value was 0.879 kJ/mol. CTGTACACGTGTTGCG was tested, and the “relative binding free energy” value was 0.46 kJ/mol. In the case of GCTTACACGTGAGTGG, the “relative binding free energy” value is reported as 0.962 kJ/mol. GTGGTCACGTGCGGCT was tested, and the “relative binding free energy” value was 0.377 kJ/mol. For GATAGCACGTGAAGGT, the “relative binding free energy” value was 0.669 kJ/mol. In the case of GGGTACACGTGGGCGT, the “relative binding free energy” value is reported as -0.293 kJ/mol. With GCTGTCACGTGCATGG the “relative binding free energy” value was 0.377 kJ/mol. AGTTCCACGTGTGTTA was tested, and the “relative binding free energy” value was 0.126 kJ/mol. For ATAGGCACGTGGTATG, the “relative binding free energy” value was -1.09 kJ/mol. For CGGTACACGTGGGAGC, the “relative binding free energy” value was 0.418 kJ/mol. For GGGAGCACGTGGAAGT, the “relative binding free energy” value was 0.251 kJ/mol. TCGTTCACGTGTGGGC was tested, and the “relative binding free energy” value was 1.38 kJ/mol. For ATGGCCACGTGTGTTA, the “relative binding free energy” value was -0.0837 kJ/mol. AATTGCACGTGAGGTA was tested, and the “relative binding free energy” value was 0.837 kJ/mol. For GGCATCACGTGCGTGG, the “relative binding free energy” value was 0.586 kJ/mol. With GTAGGCACGTGCTTGT the “relative binding free energy” value was -0.92 kJ/mol. In the case of TCGGGCACGTGCATTG, the “relative binding free energy” value is reported as -0.293 kJ/mol. For GGTAGCACGTGCTAGG, the “relative binding free energy” value was -0.753 kJ/mol. In the case of GATGTCACGTGTGTCT, the “relative binding free energy” value is reported as 0.502 kJ/mol. In the case of TGTGTCACGTGATAAA, the “relative binding free energy” value is reported as 0.251 kJ/mol. For TTAAGCACGTGAACGT, the “relative binding free energy” value was 0.795 kJ/mol. For TGTCACACGTGCTGGT, the “relative binding free energy” value was 0.293 kJ/mol. For TATTACACGTGGTCTG, the “relative binding free energy” value was 0.293 kJ/mol. For CTGTTCACGTGGAGTA, the “relative binding free energy” value was 0.753 kJ/mol. With TCGCTCACGTGTATGT the “relative binding free energy” value was 0.628 kJ/mol. GTATGCACGTGTCGGT was tested, and the “relative binding free energy” value was 0.46 kJ/mol. For GTGACCACGTGGTTTA, the “relative binding free energy” value was 0.0418 kJ/mol. For TTAAGCACGTGTAGTG, the “relative binding free energy” value was -0.126 kJ/mol. With TTGGGCACGTGGTTTA the “relative binding free energy” value was -0.209 kJ/mol. In the case of GTAGTCACGTGTGAAA, the “relative binding free energy” value is reported as 0.0837 kJ/mol. With TTGGGCACGTGAAATG the “relative binding free energy” value was 0.753 kJ/mol. With GGTGGCACGTGGGTAG the “relative binding free energy” value was -0.879 kJ/mol. TCGCGCACGTGGTGGT was tested, and the “relative binding free energy” value was -0.837 kJ/mol. CTGTTCACGTGTATTT was tested, and the “relative binding free energy” value was 1.46 kJ/mol. With TGTTACACGTGTGCCT the “relative binding free energy” value was 0.795 kJ/mol. For CTATGCACGTGTGTTT, the “relative binding free energy” value was -0.293 kJ/mol. For TGGTACACGTGCAATG, the “relative binding free energy” value was 1 kJ/mol. For GAGTTCACGTGTGAAG, the “relative binding free energy” value was 1.13 kJ/mol. In the case of GGAGGCACGTGGTGGA, the “relative binding free energy” value is reported as -0.669 kJ/mol. For TATTACACGTGCAGGT, the “relative binding free energy” value was 0.586 kJ/mol. In the case of GTTATCACGTGGGGTG, the “relative binding free energy” value is reported as 0.46 kJ/mol. With TATTTCACGTGTCGAT the “relative binding free energy” value was 1.09 kJ/mol. In the case of TTTCTCACGTGTAGGA, the “relative binding free energy” value is reported as 0.502 kJ/mol. In the case of AGGCGCACGTGGGTTT, the “relative binding free energy” value is reported as -0.126 kJ/mol. For TGGGACACGTGATGTA, the “relative binding free energy” value was 0.377 kJ/mol. With CTTTTCACGTGTTGTT the “relative binding free energy” value was 1.26 kJ/mol. In the case of GTGTGCACGTGCTGGC, the “relative binding free energy” value is reported as 0.209 kJ/mol. For TATGGCACGTGGTGAT, the “relative binding free energy” value was -0.669 kJ/mol. With AGATTCACGTGAGAAG the “relative binding free energy” value was 1.67 kJ/mol. With GGGGGCACGTGACGGT the “relative binding free energy” value was 0.209 kJ/mol. With ATATACACGTGTTTGA the “relative binding free energy” value was -0.126 kJ/mol. In the case of GTGGTCACGTGAGGTT, the “relative binding free energy” value is reported as 1.8 kJ/mol. For CTTGTCACGTGGTGCG, the “relative binding free energy” value was 0.126 kJ/mol. TTTTTCACGTGGGGCG was tested, and the “relative binding free energy” value was 1.05 kJ/mol. With CAGGGCACGTGATGGG the “relative binding free energy” value was 0.251 kJ/mol. TACATCACGTGGGTAG was tested, and the “relative binding free energy” value was -0.251 kJ/mol. For ATCGTCACGTGGAGGA, the “relative binding free energy” value was 0.418 kJ/mol. AAGGGCACGTGGGCCT was tested, and the “relative binding free energy” value was -0.586 kJ/mol. TTTATCACGTGAAGAA was tested, and the “relative binding free energy” value was 1.55 kJ/mol. In the case of TTGGTCACGTGATGAC, the “relative binding free energy” value is reported as 1.21 kJ/mol. In the case of TTAAGCACGTGGTTTG, the “relative binding free energy” value is reported as -0.628 kJ/mol. In the case of TCGGGCACGTGTGACT, the “relative binding free energy” value is reported as 0.251 kJ/mol. In the case of TTGGACACGTGTTGAT, the “relative binding free energy” value is reported as 0.251 kJ/mol. TTTTACACGTGGTATC was tested, and the “relative binding free energy” value was 0.0837 kJ/mol. With AAGCTCACGTGAATGT the “relative binding free energy” value was 2.05 kJ/mol.
